# Measured values published in PMC4336329 (PLoS ONE, 2015).
# Screen size: about 310,000 compounds; about 2,200 (0.71%) showed an effect of 50% or more. The effect is printed as a negative number. This is one part of the list.
# Target: human ether-à-go-go-related gene (hERG) potassium channel (human, UniProt Q12809)
# Assay: primary screen, population patch clamp on CHO cells stably expressing hERG
# Sequence of human ether-à-go-go-related gene (hERG) potassium channel (Q12809 whole entry, looked up): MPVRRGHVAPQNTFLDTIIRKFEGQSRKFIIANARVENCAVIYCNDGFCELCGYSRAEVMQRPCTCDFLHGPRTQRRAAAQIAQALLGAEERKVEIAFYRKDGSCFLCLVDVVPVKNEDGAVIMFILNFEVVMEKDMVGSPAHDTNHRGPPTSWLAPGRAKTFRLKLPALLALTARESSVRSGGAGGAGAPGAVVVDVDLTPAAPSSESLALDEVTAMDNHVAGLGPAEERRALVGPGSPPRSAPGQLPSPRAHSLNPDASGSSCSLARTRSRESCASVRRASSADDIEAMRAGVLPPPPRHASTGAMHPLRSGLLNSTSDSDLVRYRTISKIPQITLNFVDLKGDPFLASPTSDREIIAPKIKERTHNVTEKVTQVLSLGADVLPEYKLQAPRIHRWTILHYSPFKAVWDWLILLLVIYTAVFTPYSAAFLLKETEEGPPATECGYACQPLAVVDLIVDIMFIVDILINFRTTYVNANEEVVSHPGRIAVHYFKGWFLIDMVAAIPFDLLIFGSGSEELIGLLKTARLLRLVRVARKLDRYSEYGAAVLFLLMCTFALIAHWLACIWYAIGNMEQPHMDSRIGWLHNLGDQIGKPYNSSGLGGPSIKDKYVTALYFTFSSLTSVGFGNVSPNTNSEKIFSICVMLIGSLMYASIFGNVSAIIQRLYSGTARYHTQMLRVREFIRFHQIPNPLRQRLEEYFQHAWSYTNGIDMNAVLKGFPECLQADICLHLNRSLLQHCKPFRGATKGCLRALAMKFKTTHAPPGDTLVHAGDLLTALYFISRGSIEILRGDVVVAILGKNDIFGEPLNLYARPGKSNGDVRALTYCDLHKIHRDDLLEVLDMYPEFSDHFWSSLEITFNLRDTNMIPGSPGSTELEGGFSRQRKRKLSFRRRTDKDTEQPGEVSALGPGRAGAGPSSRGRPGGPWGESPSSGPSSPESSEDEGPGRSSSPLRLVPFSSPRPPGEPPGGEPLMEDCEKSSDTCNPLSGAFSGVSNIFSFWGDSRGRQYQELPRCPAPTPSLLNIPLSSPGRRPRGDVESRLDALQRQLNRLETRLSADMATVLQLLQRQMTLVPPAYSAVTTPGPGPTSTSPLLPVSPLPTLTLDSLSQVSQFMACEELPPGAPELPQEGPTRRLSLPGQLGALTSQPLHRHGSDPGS
row,Compound,"hERG current change (%, negative = inhibition) at 1uM [%]"
1,Cc1ccccc1CN1CCC(n2nccc2NC(=O)CCCc2ccccc2)CC1,7.05
2,CCOc1ccc(NC(=O)Nc2ccc3c(c2)nc(C)n3C)cc1,5.78
3,CC1=C(C(=O)Nc2ccccc2)C(c2ccco2)NC(=S)N1 (stereo not drawn),14.2
4,COc1ccc(-c2nc(C#N)c(N3CCC(C)CC3)o2)cc1,1.74
5,COc1ccc(NC(=O)C(c2ccccc2)N(C)C(=O)c2ccc(=O)[nH]c2)cc1 (stereo not drawn),16.6
6,Cc1ccc(-c2cc(C(=O)O)c3ccccc3n2)c(C)c1,7.73
7,COc1ccc(S(=O)(=O)N[C@@H](Cc2ccccc2)C(=O)N2CC[C@@]3(O)CCCC[C@H]3C2)cc1,8.3
8,COc1ccc(C=O)cc1Oc1nc(Cl)ncc1F,14.4
9,CCCCCCN(C(=O)CCl)c1ccccc1,15.8
10,O=C(CSc1nnc(CCc2nc3ccccc3[nH]2)n1-c1ccccc1)NCc1ccccc1,10.7
11,CC(=O)C1=C(O)C(=O)N(c2ccccn2)C1c1ccccc1[N+](=O)[O-] (stereo not drawn),16.4
12,CCN1CCCC1CNC(=O)C(=O)Nc1ccccc1OC (stereo not drawn),-5.69
13,O=C(Nc1ccc(OC(F)F)cc1)c1cc[n+]([O-])cc1,11.4
14,CN(C1CCCCC1)S(=O)(=O)c1ccc2[nH]c(=O)oc2c1,3.8
15,O=C1C(c2ccccc2)C(c2ccccc2)NC(c2ccccc2)C1c1ccccc1 (stereo not drawn),9.97
16,FC(F)(F)c1cccc(CN2CCN(c3ncccn3)CC2)c1,9.34
17,Cc1ccc2nc(NCC(=O)NN)nc(-c3ccccc3)c2c1,7.63
18,Cc1cc(Cl)ccc1NNC(=O)c1c(C)noc1C,11.6
19,COc1ccc(OCC(O)CN2CCOCC2)cc1 (stereo not drawn),13.6
20,CC(=O)N1CCN(c2ccc(NC(=O)c3ccc(C)c([N+](=O)[O-])c3)cc2)CC1,6.95
21,CC(=O)c1cccc(OCC(=O)N(C)CC(=O)Nc2ccc(F)cc2)c1,-2.65
22,Cc1ccc(NC(=O)c2sccc2C)cc1S(=O)(=O)N(C)C,1.47
23,Cc1cccc(NC(=O)CNC(=O)C23CC4CC(CC(Cl)(C4)C2)C3)n1,8.82

row,Compound,"hERG current change (%, negative = inhibition) at 1uM [%]"
1,Cc1csc(Nc2ccc(Cl)cc2)[n+]1-c1ccc(Cl)cc1.[Br-],9.03
2,Cc1cccc(Cl)c1NNC(=O)Nc1c([N+](=O)[O-])c(C)nn1C,1.11
3,CCN(CC)CCn1c2c(c(SCC(=O)Nc3ccccc3Cl)nc1=O)CCC2,-25.1
4,COc1ccc(N2CC(NS(=O)(=O)c3ccc(F)cc3)CC2=O)cc1 (stereo not drawn),31
5,COc1ccc(N2CCN(C(=O)COC(=O)Cc3c(F)cccc3Cl)CC2)cc1,-13.7
6,COc1ccc(/C=N/NC(=O)c2sc(C)nc2C)cc1,9.65
7,CCOC(=O)N1CCN(C(=O)c2cc(-c3ccc(OCC)cc3)nc3ccccc23)CC1,2.35
8,Cc1cc(C)c2sc(NC(=O)c3ccc(N4C(=O)CCC4=O)cc3)nc2c1,5.2
9,CC(NC1CCCC1)C(=O)Nc1ccccc1-c1ccccc1 (stereo not drawn),7.32
10,CCS(=O)(=O)n1nc(-c2ccccc2)nc1NCc1ccco1,-4.94
11,COc1ccc(OC)c(S(=O)(=O)Nc2cc3c4c(c2)CCN4C(=O)CC3)c1,6.36
12,Cc1ccc(NC(=O)C2CC2C)cc1S(=O)(=O)N1CCOCC1 (stereo not drawn),-5.55
13,O=c1c2ccccc2nc2c3ccccc3c(NCc3ccccn3)nn12,-1.63
14,Cc1c(NC(=O)COC(=O)C2CC3C=CC2C3)c(=O)n(-c2ccccc2)n1C (stereo not drawn),3.49
15,N#Cc1c(NC(=O)CSc2nc3ccccc3s2)sc2c1CCCC2,9.38
16,COc1ccc(C)cc1S(=O)(=O)n1nc(C)cc1C,12.9
17,CN1CCN(S(=O)(=O)c2ccc(NS(=O)(=O)c3ccccc3)cc2)CC1,17.9
18,CCCCCCn1c(SCC(=O)c2c(N)n(C)c(=O)n(C)c2=O)nc2ccccc21,3.31
19,COc1ccc(S(=O)(=O)N2CCN(CCC(=O)Nc3ccc(F)cc3)CC2)cc1,-3.26
20,O=c1c2ccccc2ncn1CCCSc1ccc(Cl)cc1,1.24
21,CS(=O)(=O)N(Cc1ccccc1Cl)c1ccc(C(=O)N2CCCC2)cc1,15.4
22,CSc1nc(C)cc(C)c1C(N)=O,8.7
23,COCCNCCCCOc1ccccc1-c1ccccc1.O=C(O)C(=O)O,4.49

row,Compound,"hERG current change (%, negative = inhibition) at 1uM [%]"
1,COCCNCC(=O)C12CC3CC(CC(C3)C1)C2.Cl,9.23
2,COc1cc(C2NC(=O)C(C#N)=C(S)N2c2ccc(C)cc2)ccc1OC(C)C (stereo not drawn),9.81
3,Cc1nnsc1S(=O)c1ccc(Br)cc1 (stereo not drawn),3.94
4,COc1ccc(C(CNC(=O)c2cncc(Br)c2)N(C)C)cc1 (stereo not drawn),9.77
5,OC1(C2(O)CC(c3ccccc3)ON2)CCCCC1 (stereo not drawn),8.29
6,Cc1ccc(C)c(OCCC(=O)N(C)CC(=O)Nc2c(C)cccc2C)c1,7.74
7,CCO/C=C1/C(=O)N(CC)c2ccccc21,-2.38
8,O=C(c1ccc(-n2cnnn2)cc1)N1CCOCC1,1.95
9,CCCCC(CC)CNS(=O)(=O)c1ccc2c(c1)CCN2C(=O)CCC(=O)O (stereo not drawn),-7.11
10,Cn1c(=O)c2c(ncn2CC(=O)N(Cc2ccccc2)c2ccccn2)n(C)c1=O,-7.98
11,Clc1ccc(Cn2cc(/C=N/n3cnnc3)c3ccccc32)cc1,3.49
12,Cc1c(N(C(=O)Cc2cccs2)C2(C(=O)NC3CCCC3)CCCCC2)c(=O)n(-c2ccccc2)n1C,-2.88
13,C/C(CC(C)C)=N\NC(=O)Nc1ccccc1,-7.03
14,Cc1nc2cc(N3CCOCC3)c(NC(=O)C3CC3)cc2c(=O)n1Cc1ccccc1,-11.2
15,CC1=Nn2c(nnc2-c2cc(-c3ccccc3)n[nH]2)SC1,3.72
16,O=C(CCN1C(=O)c2cccc3cccc(c23)C1=O)NCc1cccnc1,3.56
17,COc1cccc(OC)c1C(=O)N1CCN(Cc2ccc3c(c2)OCO3)CC1,-0.604
18,CS(=O)(=O)N1CCc2cc(C(=O)Nc3ccc(O)cc3)ccc21,13.2
19,O=C(Nc1ccccc1N1CCCCC1)c1cccc(Cl)c1,13.8
20,CNS(=O)(=O)c1cccc(C(=O)OC2CCOC2=O)c1 (stereo not drawn),9.68
21,O=C(NC1CCCCCCC1)c1cccs1,12.6
22,Cc1ccsc1C(=O)NNC(=O)c1ccc(NS(=O)(=O)c2cccs2)cc1,17.2
23,COc1ccccc1N1CCN(C2CCCN(C(=O)CCN3CCCCO3)C2)CC1 (stereo not drawn),12.6

row,Compound,"hERG current change (%, negative = inhibition) at 1uM [%]"
1,CN(C)c1ccc(C(C(=O)NC2CCCCC2)N(Cc2ccco2)C(=O)c2snc(C(N)=O)c2N)cc1 (stereo not drawn),1.21
2,O=C(O)Cn1c(=O)c2c3c(sc2n(Cc2ccc(F)cc2)c1=O)CCCC3,10.4
3,CCCCNC(=O)Nc1nc2ccccc2s1,5.19
4,Cc1nnc2sc(-c3csc4c3CCCC4)nn12,4.8
5,COc1ccccc1NS(=O)(=O)c1ccc(N/N=C/c2ccccc2OCC(=O)O)c([N+](=O)[O-])c1,9.02
6,Cc1cccn2cc(CCNC(=O)c3cccs3)nc12,10.9
7,CC(=O)c1c(C)[nH]c(C(=O)N2CCN(S(=O)(=O)c3ccc(C)cc3C)CC2)c1C,8.35
8,CCN(CC)C(=O)CSc1ncnc2c1nnn2-c1ccc(F)cc1,10.3
9,O=C1c2sc3nc4c(c(=O)n3c2C(=O)N1c1ccccc1)CCC4,12.3
10,O=C(CN(C(=O)c1csnn1)c1cccc(F)c1)NC1CCCC1,20.2
11,Cn1c(NNC(=O)c2cccc3ccccc23)cc(=O)n(C)c1=O,5.77
12,COc1ccc(NC(=O)c2cccnc2C(=O)O)c(OC)c1,16.8
13,N#CCc1ccc(NC(=O)c2ccc(S(=O)(=O)N3CCOCC3)cc2)cc1,9.26
14,Cc1[nH]c2ccccc2c1C(=O)CSc1nc2ccccc2[nH]1,13.2
15,FC(F)(F)c1cccc(NC(=S)NNC(=S)Nc2cccc(C(F)(F)F)c2)c1,16.8
16,O=C(COC(=O)/C(=C/c1cccs1)c1cccs1)NC(c1ccccc1)c1ccccc1,8.44
17,Cc1nc2ccccc2nc1OCC(=O)Nc1ccc2ccccc2c1,11.6
18,OC(c1ccc(F)cc1)C(CN1CCOCC1)c1ccccc1 (stereo not drawn),12.4
19,CN1CCN(C(=O)C2CC(=O)N(c3ccc(Cl)cc3)C2)CC1 (stereo not drawn),-0.519
20,Br.NS(=O)(=O)c1ccc(Nc2nc(-c3cccc([N+](=O)[O-])c3)cs2)cc1,9.19
21,Cn1cccc1Cc1nnc(SCC(=O)NC2CCCCC2)n1-c1ccc(F)cc1,2.44
